Among the data in publication PMC7819943, “Rice protein-binding microarrays: a tool to detect cis-acting elements near promoter regions in rice” are binding signal values, retold here.

The other results are listed elsewhere or left out.

In this assay the target is T1, OsWOX13 (Oryza sativa, UniProt Q5QMM3 1-267).
T1 sequence: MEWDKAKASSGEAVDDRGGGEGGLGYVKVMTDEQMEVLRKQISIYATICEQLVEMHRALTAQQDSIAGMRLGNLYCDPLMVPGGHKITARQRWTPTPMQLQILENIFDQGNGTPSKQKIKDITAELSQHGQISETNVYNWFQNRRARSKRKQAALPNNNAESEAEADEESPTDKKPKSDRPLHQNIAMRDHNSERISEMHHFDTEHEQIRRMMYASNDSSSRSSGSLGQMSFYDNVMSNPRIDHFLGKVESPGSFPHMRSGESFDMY
The assay can be described thus: protein-binding microarray (RPBM); PBS, 2% BSA, 51.3 ng/ul salmon testes DNA, 50 uM zinc acetate, 200 nM TF, 25 C, 1 h; high values mean tight binding. The following applies: protein: recombinant; tags: N-terminal polyhistidine and DsRed monomer fusion (pET32a); label: CyDye5-dUTP incorporated in the synthesized complementary strand; 3' TTTTT single-stranded linker to array surface; dsDNA, one strand shown. The method, boiled down:
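A custom Agilent array was converted to double-stranded form by primer extension with Cy5-dUTP and blocked with 2% BSA. Protein at 200 nM in PBS with 2% BSA, salmon testes DNA and 50 µM zinc acetate was applied for 1 h at 25 °C, followed by washing. The proteins were polyhistidine–DsRed N-terminal fusions of transcription factors, expressed in E. coli BL21-CodonPlus and Ni–NTA-purified. The binding signal is per-feature fluorescence intensity (arbitrary units) from an Axon 4000B scanner.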
For “AGTGATTTCACCTATCCTGTCAACTATCAAATGCGATTGCCGGAGTCACCTAGTGCAG”, the binding signal was 6690 fluorescence intensity (a.u.).

Regarding “CTCCCTTGATATCTAGCTCATGATTGAATCGTCTTCCTCACGGAGTCACCTAGTGCAG”, the binding signal was 12200 fluorescence intensity (a.u.). Next, “AATCATGTAATTGAAAATTTGGTAAAATACTCCGTAATGACGGAGTCACCTAGTGCAG”: 24200 fluorescence intensity (a.u.). As for “ATGTTGATTAGCAAATGCACTGCCATGTATGGAACCGACCCGGAGTCACCTAGTGCAG”, the binding signal was 41200 fluorescence intensity (a.u.). Turning to “GTGGACGAGATTGTCACTCACCTGATTTTGAAGTTAGTTACGGAGTCACCTAGTGCAG”, the binding signal is 11000 fluorescence intensity (a.u.). As for “AACACAGTTTATTCTTGTTAATTGATTAGCTCAATGTGTCCGGAGTCACCTAGTGCAG”, the binding signal was 39600 fluorescence intensity (a.u.). Next, “GAGACATCAGCAAATTAAACAGCAACAGAGACATAACCATCGGAGTCACCTAGTGCAG”: 3160 fluorescence intensity (a.u.); “ACTTGCCCTTAATTAACCTCCGAATATGCAGCTTCAGCTTCGGAGTCACCTAGTGCAG”: 5640 fluorescence intensity (a.u.); “TTTAAACTGGTGAGACGTGAGAGCCTGGCTGCGTGGGGCTCGGAGTCACCTAGTGCAG”: 4530 fluorescence intensity (a.u.). Turning to “ATGTTGGTTAATTAGTTTAATTTTGGGCAACCAACATTAGCGGAGTCACCTAGTGCAG”, the binding signal was 25600 fluorescence intensity (a.u.). Next, “TAGTTAATACTCAATTAATCATGAGCTAATGGCTCACCTCCGGAGTCACCTAGTGCAG”: 14200 fluorescence intensity (a.u.); “GTTTAATTAGCTAGCACCTGTCGCCATTGCCATGCCTCCCCGGAGTCACCTAGTGCAG”: 37100 fluorescence intensity (a.u.). Next, “ATAACTAATAAATGATTGAATTAGATGAATAGGTAGTTTCCGGAGTCACCTAGTGCAG”: 31000 fluorescence intensity (a.u.); “AGAATGGTGATTAACTATTGGTGTTAATTAATTTGCTGCACGGAGTCACCTAGTGCAG”: 31000 fluorescence intensity (a.u.). In the case of “TGATTGATGGTTTTAAATATTATATTCCTTACTATTAAATCGGAGTCACCTAGTGCAG” it was 5770 fluorescence intensity (a.u.); in that of “CCGACTAATAATTTTGTTTGTGGCAATCAAGCTGCTATCTCGGAGTCACCTAGTGCAG”, 12700 fluorescence intensity (a.u.). Turning to “CAATAATTTCTTAAACAGCCCACAATTAATTTATCAAGCACGGAGTCACCTAGTGCAG”, the binding signal is 31200 fluorescence intensity (a.u.).

Consider “CACATTAATCAGCGCATCAGTTCCAGTCGTCGCCTAAATTCGGAGTCACCTAGTGCAG”, for which the binding signal was 4530 fluorescence intensity (a.u.). Regarding “TATATTTGATAGGTATAAAGGTGCAGTATCTTACATATGGCGGAGTCACCTAGTGCAG”, the binding signal is 7520 fluorescence intensity (a.u.).

As for “CCGGGTGATTGGCATGAATCTGAATGGCTGAATCCTGATGCGGAGTCACCTAGTGCAG”, the binding signal is 53400 fluorescence intensity (a.u.). Consider “AACCATGTTTGACTCAACATAATTAGTGCGACAAACCGCACGGAGTCACCTAGTGCAG”, for which the binding signal is 4590 fluorescence intensity (a.u.).

In the case of “AACCTGATTTGCATGAACCAAATTTACAGAGTAGTAGTCACGGAGTCACCTAGTGCAG”, the binding signal was 29000 fluorescence intensity (a.u.). Next, “AAAACCATCATCAATCAGCCGATCCTGATGTTGTCCCTGCCGGAGTCACCTAGTGCAG”: 25100 fluorescence intensity (a.u.); “AGTTGATTGGTAAAGTGACATGCTTGAACACTGTTGGAGCCGGAGTCACCTAGTGCAG”: 54000 fluorescence intensity (a.u.); “GCTCTCTCTATTCTGTTTGCAATCCTCTTCACCCTAATTTCGGAGTCACCTAGTGCAG”: 4300 fluorescence intensity (a.u.). In the case of “CTGGGTGATTAAAATCTCTCTCCGTCTCATTCATCACTAACGGAGTCACCTAGTGCAG” it was 12300 fluorescence intensity (a.u.); in that of “GCAGATTTTACTTGATAGCATTATCTAAGATAGCCAATTGCGGAGTCACCTAGTGCAG”, 7460 fluorescence intensity (a.u.). As to “AAAGAAAATTATATCTTAATTACCGTCATTATATATCTACCGGAGTCACCTAGTGCAG”, the binding signal is 15200 fluorescence intensity (a.u.). Next, “TGACAAGTGATTGCGGTGAAGCTCAATAGTATTCAGTGATCGGAGTCACCTAGTGCAG”: 15400 fluorescence intensity (a.u.). Next, “CACTGGCAAATCCTAATTGATGGATCAGAGCCAAGCATGTCGGAGTCACCTAGTGCAG”: 31200 fluorescence intensity (a.u.); “ACTAAATTATAGTCACATACACAAGTCAACAGTTCAATTTCGGAGTCACCTAGTGCAG”: 13900 fluorescence intensity (a.u.); “TCGTGATAATATACTCCTGACAATATAAGATTGCTGCTGGCGGAGTCACCTAGTGCAG”: 3280 fluorescence intensity (a.u.). Take “CCTTATTTGACGGATCGATCGAATCAATCGTGCCCAGCAGCGGAGTCACCTAGTGCAG”: the binding signal was 3300 fluorescence intensity (a.u.). Regarding “TGCTGAAATGATTGCTTGCTTGGAAGATGATCATTTTGGTCGGAGTCACCTAGTGCAG”, the binding signal was 36600 fluorescence intensity (a.u.).

On to “AATGTTATAATTGATTGGGCCTTCTTTGTAGCTTCTTCTACGGAGTCACCTAGTGCAG”, for which the binding signal is 33000 fluorescence intensity (a.u.).

For “GATAACTCCAAATGATAGGCTGAGAGGTGTTGTGACACTTCGGAGTCACCTAGTGCAG”, the binding signal was 6630 fluorescence intensity (a.u.). Regarding “TATGGTCTAACATATGATTGCAAATGTCCAACTGTAGGTCCGGAGTCACCTAGTGCAG”, the binding signal is 4050 fluorescence intensity (a.u.). Next, “AAACTCAATTGACAGCCCAGTTGCTTTGCCTCCCCGAAACCGGAGTCACCTAGTGCAG”: 4860 fluorescence intensity (a.u.). Next, “TGTTGATAGGCAAGTTTACGCTGAACTTTTGGGTTGCGTGCGGAGTCACCTAGTGCAG”: 26000 fluorescence intensity (a.u.); “ACACGGCGAGATTGAAATTGTATTGTGTGGCTTGCCTAGACGGAGTCACCTAGTGCAG”: 12000 fluorescence intensity (a.u.).

Turning to “TGATATATAATTGTGACACCCAATCATCTCTGCTTTGGTCCGGAGTCACCTAGTGCAG”, the binding signal was 12100 fluorescence intensity (a.u.). For “ATGAATAATTAACCTCCGAATCAAAGGGAGGGCCGACTGCCGGAGTCACCTAGTGCAG”, the binding signal is 7080 fluorescence intensity (a.u.).
